This is one part of the list. The list includes weakly bound sequences.

For this test, the target named is T1, MBP-FoxP3dN (UniProt Q99JB6).
T1 sequence: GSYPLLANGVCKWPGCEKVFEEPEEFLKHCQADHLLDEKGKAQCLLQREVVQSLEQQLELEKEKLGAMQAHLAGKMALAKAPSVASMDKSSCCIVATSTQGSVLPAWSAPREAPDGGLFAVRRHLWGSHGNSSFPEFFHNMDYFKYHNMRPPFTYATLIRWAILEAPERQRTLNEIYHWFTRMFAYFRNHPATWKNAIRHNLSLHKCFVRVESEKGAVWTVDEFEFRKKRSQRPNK
Kind of test: PD-seq (MBP pull-down with sequencing). To be noted: 20 mM Tris-HCl pH 7.5, 100 mM NaCl, 1.5 mM MgCl2, 0.4 uM protein, 0.1 uM dsDNA library, 30 min, room temperature, amylose pull-down; high values mean tight binding; double strand, one strand shown.
“GATGATTGTTCTCCCAGCTGATGAATTACAATTCTCGAGTAAACAAATTTTCCTAATCTTTCTGTTCAAGCGCCATCTAC”: the binding signal (RPM ratio (pull-down/input)) was 0.786.
Turning to “GATGATTGTTCTCCCAGCTGATGAATTTAAGGTGTCGAGTAAACAAATTTTCCTAATCTTTCTGTTCAAGCGCCATCTAC”, the binding signal (RPM ratio (pull-down/input)) was 0.772.
Regarding “GATGATTGTTCTCCCAGCTGATGAATTTCGATATTCGAGTAAACAAATTTTCCTAATCTTTCTGTTCAAGCGCCATCTAC”, the binding signal (RPM ratio (pull-down/input)) was determined as 1.29.
With “GATGATTGTTCTCCCAGCTGATGAATTTCCTGACTCGAGTAAACAAATTTTCCTAATCTTTCTGTTCAAGCGCCATCTAC” the figure was 0.182; with “GATGATTGTTCTCCCAGCTGATGAATTTCTTCCATCGAGTAAACAAATTTTCCTAATCTTTCTGTTCAAGCGCCATCTAC”, 0.2.
With “GATGATTGTTCTCCCAGCTGATGAATTAGATCGGTCGAGTAAACAAATTTTCCTAATCTTTCTGTTCAAGCGCCATCTAC” the figure was 0.237; with “GATGATTGTTCTCCCAGCTGATGAATTCAGTTGGTCGAGTAAACAAATTTTCCTAATCTTTCTGTTCAAGCGCCATCTAC”, 2.43; with “GATGATTGTTCTCCCAGCTGATGAATTAGGAGCATCGAGTAAACAAATTTTCCTAATCTTTCTGTTCAAGCGCCATCTAC”, 0.862.
Consider “GATGATTGTTCTCCCAGCTGATGAATTGTAAAAGTCGAGTAAACAAATTTTCCTAATCTTTCTGTTCAAGCGCCATCTAC”, for which the binding signal (RPM ratio (pull-down/input)) worked out at 0.185.
For the sequence “GATGATTGTTCTCCCAGCTGATGAATTACAATCTTCGAGTAAACAAATTTTCCTAATCTTTCTGTTCAAGCGCCATCTAC”, the binding signal (RPM ratio (pull-down/input)) was determined as 0.52.
Turning to “GATGATTGTTCTCCCAGCTGATGAATTCGCGCGCTCGAGTAAACAAATTTTCCTAATCTTTCTGTTCAAGCGCCATCTAC”, the binding signal (RPM ratio (pull-down/input)) was 0.634.
Take “GATGATTGTTCTCCCAGCTGATGAATTTGTCTCATCGAGTAAACAAATTTTCCTAATCTTTCTGTTCAAGCGCCATCTAC”: the binding signal (RPM ratio (pull-down/input)) was 2.75.
For the sequence “GATGATTGTTCTCCCAGCTGATGAATTAATCATGTCGAGTAAACAAATTTTCCTAATCTTTCTGTTCAAGCGCCATCTAC”, the binding signal (RPM ratio (pull-down/input)) came out at 0.69.
For the sequence “GATGATTGTTCTCCCAGCTGATGAATTGGACAGATCGAGTAAACAAATTTTCCTAATCTTTCTGTTCAAGCGCCATCTAC”, the binding signal (RPM ratio (pull-down/input)) turned out to be 0.195.
Turning to “GATGATTGTTCTCCCAGCTGATGAATTCGATAATTCGAGTAAACAAATTTTCCTAATCTTTCTGTTCAAGCGCCATCTAC”, the binding signal (RPM ratio (pull-down/input)) worked out at 0.369.
For “GATGATTGTTCTCCCAGCTGATGAATTTTGTCTCTCGAGTAAACAAATTTTCCTAATCTTTCTGTTCAAGCGCCATCTAC”, the binding signal (RPM ratio (pull-down/input)) turned out to be 2.39.
With “GATGATTGTTCTCCCAGCTGATGAATTTTCCAATTCGAGTAAACAAATTTTCCTAATCTTTCTGTTCAAGCGCCATCTAC” the figure was 0.25.
As for “GATGATTGTTCTCCCAGCTGATGAATTCTGAGGTTCGAGTAAACAAATTTTCCTAATCTTTCTGTTCAAGCGCCATCTAC”, the binding signal (RPM ratio (pull-down/input)) is 0.379.

(Values after article PMC12820563.)
